Measured values: the RNAGym collection of RNA variant scans (doi:10.7554/elife.90254)
The source gives no read counts; variants with many changes may rest on few reads.

B1: LINE1-mini (parent)
chain: GGCAGAGCUCAACACAGCGUGGCAAAGUGGCUGUGGCUAGACUGCC

Variants of: B1
Experiment: self-cleavage, relative activity (ratio to wild type); higher = more cleavage; in vitro, sequencing; the parent is a self-cleaving ribozyme

| Variant | self-cleavage |
| --- | --- |
| C8U A16G C31A G33A C37U | 0.28 |
| G1U U9A G27C | 0.01 |
| G27U U34C C37G U43G | 0 |
| C3A G5U A11C A12G A16C | 0.03 |
| U9C G27A U32A G36C A39G C45G | 0 |
| G2U G44U C45A C46A | 0.01 |
| A4C C10U A25U C46U | 0.1 |
| U20G U32C G36A G40A U43A | 0.03 |
| G5U C18A C42G | 0.02 |
| G17C U34A U43A | 0.01 |
| G2A C23U C37A | 0.18 |
| U9A A16C A26C | 0.07 |
| A12C G21U C23U A26C | 0.03 |
| C3A A14C U32G | 0.11 |
| C3U G5C A6G | 0.01 |
| C3A G21U C46U | 1.08 |
| G7A U9A G22U C23G A26C | 0.36 |
| A6U C8G U20A G36U G40U | 0.03 |
| A14U C15A U20A C23U | 0.09 |
| C15U G21U G30A | 0.23 |
| A16U G19A A24G A25U U28G G35C A39G C46G | 0.01 |
| C3A A6U C13G U32G U34C | 0.19 |
| C3G U9A C15A A24U | 0.68 |
| C3A A6G A26U | 0.03 |

| Variant | self-cleavage |
| --- | --- |
| U20C G30A G40C | 0.04 |
| G19U G30U A39U | 0.54 |
| A6G C23U G40A | 0.06 |
| G2U U9A C37G | 0.07 |
| C8A C10G C13G C23A G29A C31A C37A U38A | 0.02 |
| C13G G40C C45A | 0.06 |
| G17U C18U G19C A39C | 0.1 |
| G21C G30U G36A | 0.04 |
| G2C G19A C37U G44U C46A | 0.01 |
| C3A G27A U28A A39G C42U | 0.12 |
| A14U U32G G44C | 0.05 |
| G7C C10G G40A | 0.02 |
| G1C C8A C37G | 0.04 |
| G21U G22U A24U | 1.53 |
| A4G C23U U28A | 0.11 |
| A6U G19U C37U | 0.02 |
| C18U G22A G29C U32G C42A | 0.12 |
| G2U C13U G21U | 0.05 |
| C23A U28A A39G G40A | 0.04 |
| G5C C8A A16G G40U | 0.19 |
| U20A G36C G40C G44A | 0.02 |
| C3G G5U C42A C45U | 0.2 |
| G1A G21A G33C C46U | 0.09 |
| C8G U34G C46A | 0.05 |

| Variant | self-cleavage |
| --- | --- |
| C8A U9A A12C C18A G40U | 0.02 |
| G19C G40C C45A | 0 |
| C8G G19A G30A | 0.09 |
| G1C C8G C13G C15U U32C | 0.02 |
| C8A U9A G36C | 0.05 |
| G2U G35U U38G | 0 |
| G5A C10U G19U G22A | 0.09 |
| G2U G7A C15U U20A A24C A39C | 0.05 |
| C3U A4G G22U | 0.24 |
| C8G U9G G44U | 0.08 |
| A4G C23U G27U | 1.73 |
| G7A C8U C18A A39U | 0.02 |
| U9G A14C C23G G44U | 0.04 |
| G2C G19U G33U U43A G44C | 0.06 |
| C3U G17A G36C C45U | 0.01 |
| A24C C37U U38G | 0.03 |
| G17C G30C G35U U38C | 0 |
| G2U G35A A39C C46U | 0.05 |
| C13A G22U C23U A25C U28C | 0.04 |
| G19U U32A A39U | 0.23 |
| G1C A4G G27A A39C G40C | 0.02 |
| G29C G35A C45G | 0.04 |
| C3G U20C U28G | 0.45 |
| G19A G27A C37U A39C | 0.04 |

| Variant | self-cleavage |
| --- | --- |
| U9C C10A G21A C23A | 0.02 |
| C8U G29A A41U | 0.06 |
| G2A C3U U20C G35U G44U | 0.06 |
| G27C G35A G44U | 0.05 |
| C15U G27A G29U | 2.4 |
| G7U G19C G22U G29U | 0.03 |
| G21C C23U C31A G44C | 0.04 |
| G5U U20G U32G C37G | 0.02 |
| C10U G19C A25G A26C A41G | 0.05 |
| G5U G22C C23G | 0.06 |
| A6U C8G C31A C42A | 0.02 |
| G1A G7U G30C | 0.11 |
| C13U G33A G44C | 0.17 |
| U9C A12C C23A U32G A39U | 0.01 |
| G17A A41G U43A | 0.01 |
| A4U G17U A25U G36C | 0.01 |
| U9G G17A A24C U28A C46U | 0.02 |
| A6U G7U C15G A16U G17C | 0.01 |
| G1U G21A G35C | 0.02 |
| C3A A6G A14C G21A G40A | 0.03 |
| C18U U38A A39C | 1.35 |
| C3U U32G G35C G36C | 0.06 |
| G2U C10G A16G G27C | 0.01 |
| C3A C15G C18A G36C C45G | 0.05 |

| Variant | self-cleavage |
| --- | --- |
| G5U A25C G27A G35C C42G | 0.02 |
| C3G A11U C13U G29C U43C | 0 |
| G19A G36A U43C | 0.14 |
| C18U G29U U38G G40U | 0 |
| G1C C10A G30A C31G | 0.02 |
| A4U G17A G27A G30A | 0.44 |
| C8G G17A A24G | 0.04 |
| A12G C31A C37U | 0.22 |
| C13U G30A U38A | 0.17 |
| A6G C31U U34C | 0.01 |
| C8G U9G G22C A24U A25U U32C | 0.01 |
| A14U G17U U32G G33A C42A | 0.1 |
| G33U G44A C46U | 0.15 |
| A12G G21C G35U | 0.01 |
| A11U A14U C23U G29C G36C | 0.01 |
| C10A A16U U32G | 0.07 |
| A16G U20C C46U | 0.07 |
| A12G A16G A39C | 0 |
| A6G C15U G29C G44C | 0.11 |
| G2U G7A A14C U38G | 0.02 |
| A11C C15U U32C | 0.01 |
| A4U A26C U43A | 1.08 |
| C23A A25U U32C U43C | 0.04 |
| C31A U32C A41U | 0.12 |

| Variant | self-cleavage |
| --- | --- |
| C31U G36A C37A | 0.11 |
| C15U C23A A24G A39C | 0.18 |
| C3G G33A U43A | 0.04 |
| G2C U28C G35C U43G C46U | 0.01 |
| U9G A26C A39G A41C | 0 |
| U9G A26G G30U G35U | 0.02 |
| G33A C42A C46U | 0.06 |
| A11G C15G U32G G40A | 0 |
| C13U G30A C45U | 0.08 |
| C8A C10A C15U G29U G40U | 0.06 |
| C3U G22A G27C | 0.55 |
| A4C G21C U38G | 0.02 |
| G5U C13U C31A G33C A41G | 0.04 |
| C3A C8U G22C G27A G33C | 1.16 |
| A11C G19C C23G G35U | 0 |
| U9A C13A U20C G44C | 0 |
| C8G C42A G44C | 0.08 |
| C8A C10A C18G C31A U34A | 0.03 |
| A4U U9G A25G G35C G40C | 0.21 |
| C15G G22C G36A | 0.03 |
| A6U C13A U20A G22U | 0.21 |
| C18G G19C G21U A26C G30C C46U | 0.18 |
| C3A G36C U38C C45A | 0.07 |
| G1C C10U A12U C23G A25C G35C | 0 |

| Variant | self-cleavage |
| --- | --- |
| U9C A14C U20C C23A G29U | 0.01 |
| G2A C15A G19A U34C | 0.21 |
| A6U G19C G21A G22U U38G A39U G40U | 0.01 |
| G5U G7A A11G U20A G22A | 0.01 |
| G2A A4G A11G | 0.02 |
| C8A G29A G30C | 0.17 |
| G2U C31U U32G | 0.04 |
| A12U G33A U38G | 0.01 |
| A12C A24G U28A G36U | 0 |
| G40A C42A U43C | 0.02 |
| C3G G5A C8U C13A | 0.2 |
| C13A U20G A24G G40A | 0.08 |
| U32A G33C G35U | 0.08 |
| A26G C42U C45G | 0.01 |
| C8G C15A G22A G33A | 0.02 |
| G5A A26G C37U | 0.01 |
| A6U G35U A39G C42U | 0.07 |
| G1A C23U A25U | 1.11 |
| C8A G29A C31G | 0.18 |
| G5A C10U A11G G29U C42A | 0.01 |
| G7A C13G U34C | 0.23 |
| A4G G7C A26U | 0.03 |
| C3U G21C A26G G30U | 0.05 |
